Measurements reported in the supplement of paper PMC3334620.
Whole data set: some 33,000 sequences, median “E-score (-0.5 to 0.5)” near -0.012, cut for the highest 2% near 0.29. The list shows a part of the results.

The sequences below were run against T1, Ybr033w (UniProt P38073) (assay: PBM E-score (8-mer binding enrichment) (E-score (-0.5 to 0.5)); higher = stronger / more preferred TF binding; most listed sequences are background and not binding sites). Settings: protein concentration: 200 nM; construct: GST-full length.
T1 sequence: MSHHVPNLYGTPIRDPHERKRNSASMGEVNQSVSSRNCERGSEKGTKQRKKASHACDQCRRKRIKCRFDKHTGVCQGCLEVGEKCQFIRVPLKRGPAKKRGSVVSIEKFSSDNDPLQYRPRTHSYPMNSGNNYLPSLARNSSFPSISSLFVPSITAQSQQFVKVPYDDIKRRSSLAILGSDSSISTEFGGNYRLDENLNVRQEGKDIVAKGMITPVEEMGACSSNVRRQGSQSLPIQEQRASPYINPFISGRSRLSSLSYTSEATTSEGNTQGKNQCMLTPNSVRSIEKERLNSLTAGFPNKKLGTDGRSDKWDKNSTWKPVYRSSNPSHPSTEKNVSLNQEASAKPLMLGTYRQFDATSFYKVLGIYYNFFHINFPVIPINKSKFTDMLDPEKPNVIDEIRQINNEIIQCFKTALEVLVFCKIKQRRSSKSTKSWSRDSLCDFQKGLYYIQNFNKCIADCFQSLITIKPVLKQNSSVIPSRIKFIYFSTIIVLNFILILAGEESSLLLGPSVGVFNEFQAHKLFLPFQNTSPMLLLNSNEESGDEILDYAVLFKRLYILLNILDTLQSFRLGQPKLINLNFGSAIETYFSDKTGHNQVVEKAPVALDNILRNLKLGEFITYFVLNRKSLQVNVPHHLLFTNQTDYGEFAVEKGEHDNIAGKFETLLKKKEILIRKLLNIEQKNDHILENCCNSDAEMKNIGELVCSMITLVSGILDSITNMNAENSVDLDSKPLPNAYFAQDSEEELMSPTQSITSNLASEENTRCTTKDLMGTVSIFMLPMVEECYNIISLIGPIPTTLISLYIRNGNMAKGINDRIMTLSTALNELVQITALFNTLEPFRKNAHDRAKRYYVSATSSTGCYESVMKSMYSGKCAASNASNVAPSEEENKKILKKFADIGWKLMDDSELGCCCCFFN
Method in brief: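 For each ungapped eight-base word taken together with its reverse complement, the Universal PBM Analysis Suite assigned an E-score. Binding data came from GST-tagged yeast transcription factors, applied at about 100-200 nM, on universal all-10-mer Agilent arrays made double-stranded by primer extension. Fluorescent anti-GST marked bound protein, and scans were normalised with masliner.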

Sequence | PBM E-score
CGAAGGAA | -0.14
ATAAGGGA | -0.0166
ATCGGAGC | -0.107
ATGTTAAT | 0.152
GAGGGACA | -0.261
CCATTGAC | 0.0236
AGATTAAA | 0.295
CCAGCCGC | -0.116
ATTCTAAA | 0.227
AGAGTACG | -0.0594
TCCGTTCA | -0.00203
GTAGTATA | 0.168
AAATGGCA | 0.101
AAGGCTTA | -0.0575
CATGCTCG | -0.13
ATGGGACG | -0.226
CAAAGGGC | -0.305
CTTTTAAA | 0.026
CCGCAGCA | -0.0607
ATTACCTG | 0.0402
AAGGCCGT | -0.0585
ACCGCATG | 0.0199
AGGCGCCG | -0.203
AGTGTTAC | 0.129
ACGCTTGA | 0.0966

Sequence | PBM E-score
CTAGAGTA | 0.118
AATTCGTC | 0.211
CTCCCTCA | -0.237
AACCCTTC | -0.0208
ATCAATAG | 0.178
CCACGTTA | 0.0945
ATAGGACA | -0.0693
AAATGGGG | -0.265
ACTATCCA | -0.0306
CGCGCAAC | -0.0268
ATGGACCA | 0.00537
GTGTGTTA | 0.292
ATCCGTGC | 0.0405
CGGCGGAA | 0.0216
AATCTAAT | 0.168
CATAGGAA | 0.0524
TATTTGGA | 0.082
GGCTATGA | -0.105
GAGGACCA | -0.0343
CCACGAGA | -0.0169
AGTCCTCC | -0.237
CCCAGACA | -0.168
GCACTGAC | -0.165
CCCGATGC | -0.222
GCCCTGGA | -0.191

Sequence | PBM E-score
ACACAAAC | 0.0791
ACACCAGT | -0.31
AGAACCCA | -0.0512
CTTGAAGC | -0.11
GAACTCAC | -0.0937
ATAGGCGC | -0.145
ATTCCAGC | 0.0338
ACCCCTAG | -0.136
ACGTATAA | 0.201
CCCCGTCA | -0.167
GAATTTGC | 0.203
GGTGAGAC | 0.0001
CGGATGCA | -0.199
AGTCTTCC | 0.0281
AGGAAAGC | -0.118
ACTAAAGT | 0.141
CGACAATC | -0.00125
AGCACCAC | -0.129
CATAAAGA | 0.219
CTACGAAA | 0.0387
AATACCGT | 0.221
CTCTGACA | 0.0954
TCAGTACA | 0.0397
GCCGTGCC | -0.179
AACTGCAA | 0.136

Sequence | PBM E-score
ATGTTCCC | 0.199
CACCGTGC | -0.202
CCCGGACC | -0.251
CCGCGGAA | -0.0214
CGAAGGGA | 0.0713
CGGTCTCC | -0.218
ACGATACG | 0.0322
GGCAACGA | -0.0716
GAATCGGA | 0.0289
CTAGTCCA | -0.0773
CCCGACCG | -0.144
AGTTTGAT | 0.195
CAAAGTGA | 0.137
CAACCCCA | -0.106
CAGACACC | -0.0856
AGTGATCA | 0.01
AGACGTAT | 0.0171
CCAAACCA | -0.107
GGCGCACC | -0.261
AACTGCAG | -0.0397
GTTATTAA | 0.229
ATGTCAAA | 0.217
AAACACTT | 0.165
GACACTTA | -0.0142
GCTGCAGA | -0.101

Sequence | PBM E-score
AACGCGAG | 0.0539
TAGGATCA | 0.195
ACACGCAA | 0.142
GCAACCCA | -0.107
GCCCCGGA | 0.0163
ACTGACCC | -0.198
CGGGTCTA | -0.11
AGTAGTGG | 0.0743
AATTAGAA | 0.147
ACATGTCA | -0.0171
AGGCGGGC | -0.34
ACCCGTAC | 0.00422
ATAAAGGC | 0.0972
AGAACTCA | 0.111
CACCTCGA | 0.155
ACTCAAAA | 0.219
AGTCGTTC | -0.206
AGATGGAT | -0.0291
ATTAGAGG | -0.0176
CCTGCGCC | -0.237
ATTCTTAC | 0.251
CCCAGGTC | -0.314
TCACTGAA | 0.0939
AAAACTCG | 0.221
CATCTCTC | -0.0755

Sequence | PBM E-score
CCCCAGAC | -0.304
ACGCAACG | 0.0621
ATATAGAC | 0.142
CACCGTAA | 0.166
AGAACGGA | -0.0246
AGTCCGAC | -0.113
ATGGAGAA | 0.157
GGAAATAC | 0.183
AGCGTTAC | -0.0321
CTGTCAGA | 0.00116
CCTCGACA | -0.206
CTACAGTA | 0.0929
ATCCGTAG | -0.00059
TAAGATGA | -0.0515
CTGCAATC | 0.107
GACAATAC | 0.199
CTAATCGC | -0.0175
CGAGAAAA | 0.0269
CTCAGACC | -0.029
AGTAATAT | 0.336
CAGCCACC | -0.197
GTGAGGTA | 0.0102
CAGGGCTC | -0.284
CACAAAAG | 0.149
AAGACGCT | -0.0835

Sequence | PBM E-score
GCGAGGCA | -0.216
TATGAACA | 0.17
AAATGGAA | 0.177
ATTTAATA | 0.325
AAGAAGCA | 0.103
GCGCTACC | -0.0863
TTATCAAA | 0.275
CGTAGCGA | -0.0425
ACTCGAAT | -0.0149
CAGCTTCA | -0.0893
TCAGCGAA | 0.0175
CACACGAG | -0.277
ATTTTGTA | 0.246
AAACACGA | 0.217
ATTCTCCG | 0.305
AGATTATA | 0.246
CCGCAAGG | -0.00021
ATTGCGGA | 0.127
GAGTCCAC | -0.192
CTAACGCA | 0.0758
AAAACTGA | 0.0327
AGTCTGAC | -0.155
